This note sets out measurements from article PMC6919601, “Identification of Plasmodium dipeptidyl aminopeptidase allosteric inhibitors by high throughput screening” (PLoS ONE, 2019).

About 230 (0.21%) of roughly 110,000 compounds showed an effect of 50% or more. The list shows a part of the results.
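Also: 30 min substrate incubation versus DMSO and 10 µM JCP410 controls.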

For the experiment, the target named is DPAP1 (Plasmodium falciparum, UniProt Q8IIJ9). Briefly: primary screen, percent inhibition; read by cleavage of a fluorogenic dipeptide substrate; higher = more effect of the substance. More on the design: species or system P. falciparum D10 trophozoite lysates; single well.
Sequence of DPAP1 (Q8IIJ9 whole entry, looked up): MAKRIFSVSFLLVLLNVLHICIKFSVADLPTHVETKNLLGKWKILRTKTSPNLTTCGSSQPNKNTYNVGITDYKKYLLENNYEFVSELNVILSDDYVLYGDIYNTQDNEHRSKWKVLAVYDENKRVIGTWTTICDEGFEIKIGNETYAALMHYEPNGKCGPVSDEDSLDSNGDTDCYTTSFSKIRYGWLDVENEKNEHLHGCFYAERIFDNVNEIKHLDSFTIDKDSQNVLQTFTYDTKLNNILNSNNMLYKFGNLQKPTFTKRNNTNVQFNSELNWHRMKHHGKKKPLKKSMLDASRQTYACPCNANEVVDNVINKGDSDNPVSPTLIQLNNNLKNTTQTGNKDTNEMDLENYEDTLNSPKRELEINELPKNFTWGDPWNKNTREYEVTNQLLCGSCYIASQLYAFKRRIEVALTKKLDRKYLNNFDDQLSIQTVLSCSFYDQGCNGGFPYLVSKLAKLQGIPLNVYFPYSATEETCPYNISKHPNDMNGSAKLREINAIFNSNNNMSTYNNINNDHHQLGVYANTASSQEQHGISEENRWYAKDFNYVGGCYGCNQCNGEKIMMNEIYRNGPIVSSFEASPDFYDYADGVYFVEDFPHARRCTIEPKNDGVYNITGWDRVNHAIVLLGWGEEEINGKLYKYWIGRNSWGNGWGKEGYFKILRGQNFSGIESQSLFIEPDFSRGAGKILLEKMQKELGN
Take `CC1CCN(C(=O)c2cccc(NC(=O)c3cccs3)c2)CC1`: the “% Inhibition @ 10 uM” value is given as 3.66%. `CCOC(=O)c1c(NC(=O)c2cc(Cl)ccc2OC)sc2c1CCCC2`: the “% Inhibition @ 10 uM” value is recorded as 19.4%. As for `Cc1nc(NC(=O)c2ccc(F)cc2)ccc1Br`, the figure is 0.843%; as for `O=[N+]([O-])c1ccc2[nH]c3c(c2c1)CCC/C3=N\CCO`, 9.01%; as for `CC(C)Cc1nnc2sc(NC(=O)C(C)C)nn12`, -2.48%. Next, `Cc1nn(CC(=O)NCc2ccc(OC(C)C)cc2)c(=O)c2cccn12`: -0.698%. As for `CCc1cccc(OCC(=O)Nc2ccc(Br)cc2C(=O)O)c1`, the figure is 0.605%; as for `CC(=O)N1CCc2nc3sc(C(N)=O)c(N)c3c(C(F)(F)F)c2C1`, 2.72%.

As to `COc1ccc(NS(=O)(=O)c2ccc(OC)c(Cl)c2Cl)cc1OC`, the “% Inhibition @ 10 uM” value was -15.4%. As for `Cc1c(Cl)cccc1NC(=O)/C=C/c1ccc(Cl)cc1`, the figure is 4.54%; as for `OC1C2CCCC1C(N1CCCCC1)CC2` (stereo not drawn), 3.72%; as for `CC1CCN(S(=O)(=O)c2ccc(NC(=O)c3cc(Cl)ccc3Cl)cc2)CC1`, 2.22%. As for `CCOC(=O)C1=C(C)NC(=O)NC1c1cc(Cl)cc(Cl)c1OC` (stereo not drawn), the figure is -1.45%; as for `COCCNC(=O)CCc1nnc2n(Cc3ccccc3Cl)c(=O)c3ccccc3n12`, -4.21%; as for `NC(=O)C1CCCN(CC2CC=CCC2)C1` (stereo not drawn), 0.0792%. As for `Cc1cc(C)cc(OCC(O)CN2CC(C)OC(C)C2)c1` (stereo not drawn), the figure is 0.815%; as for `Cc1ccc(-n2nc3c(c2NC(=O)c2ccc(Br)cc2)CS(=O)(=O)C3)c(C)c1`, 5.49%.

In the case of `CC1=CCC2CC1C(c1ccc(O)cc1)OC2(C)C` (stereo not drawn), the “% Inhibition @ 10 uM” value was determined as 18.2%. As for `Cc1[nH]nc(O)c1C(c1ccccc1)C(C#N)C#N` (stereo not drawn), the figure is 0.605%; as for `CC1(C)CC(=O)c2c(O)c(-c3ccccc3)c(=O)n(-c3ccc(Br)cc3)c2C1`, -6.58%.

On to `CC1CCN(C(=O)CN(Cc2ccccc2)S(C)(=O)=O)CC1`, for which the “% Inhibition @ 10 uM” value worked out at 1.86%. As for `O=C(O)C1CC1(c1ccccc1)c1ccccc1` (stereo not drawn), the figure is -10.2%; as for `O=C(O)C1Sc2nc(O)sc2C2c3cc(Br)cc(Br)c3OC(=O)C12` (stereo not drawn), 5.44%; as for `COc1cc(OC)c(OC)cc1CN1CCN(C)CC1`, 1.63%. As for `COc1ccc(C2CC(O)=C/C(=N/CCc3c(C)[nH]c4ccccc34)C2)cc1` (stereo not drawn), the figure is 1.03%.

`CCC(C(=O)NCC1CCCO1)n1nc(C)n2c(cc3sccc32)c1=O` (stereo not drawn): the “% Inhibition @ 10 uM” value amounted to 1.8%. In the case of `COc1ccc(/C=N\n2nnnc2N)cc1Br`, the “% Inhibition @ 10 uM” value is on record as 9.09%. As for `Cc1nnc(N2CCCC(C(=O)NCC3CCCO3)C2)c2nn(-c3ccc(Cl)cc3)c(C)c12` (stereo not drawn), the figure is -1.41%; as for `Cc1sc2ccc(-c3ccccc3)cc2[n+]1CCCS(=O)(=O)O`, -1.33%; as for `Cc1ccc2onc(CNC(=O)N3CCCC3)c2c1`, 2.46%.

In the case of `CC(=O)N1CCC2(CC1)OC(=O)C(C)=C2C(=O)NC1CCN(Cc2ccccc2)CC1`, the “% Inhibition @ 10 uM” value is on record as 1.34%. Next, `OC1CCN(Cc2ccsc2)CC1`: 0.708%; `O=C(/C=C/c1ccc2c(c1)OCO2)NC1CCCCC1`: -5.9%; `CCC(C)N(CCNC(=O)c1nc(-c2cccnc2)no1)Cc1ccco1` (stereo not drawn): -1.97%. Next, `Cc1oc(-c2cccs2)nc1CSCC(=O)NC1CCCCCCC1`: 2.37%. Next, `O=C(Cn1cc(C(=O)C(F)(F)F)c2ccccc21)NCc1ccco1`: 0.13%. Turning to `CC(C)NC(=O)c1cc2cc3ccc(Cl)cc3nc2o1`, the “% Inhibition @ 10 uM” value is -1.54%. As for `O=C(c1cc2nc(-c3ccccc3)cc(C(F)(F)F)n2n1)N1CCCCC1`, the figure is -3.27%; as for `CCOC(=O)N1CCN(Cc2nc3c(c(=O)n(C)c(=O)n3C)n2Cc2c(F)cccc2Cl)CC1`, -4.14%; as for `Cc1ccc2nc(N3CCN(C4CCCCC4)CC3)c(-n3nc(C)cc3C)nc2c1`, 0.166%.

Take `COc1ccc(CC(=O)Nc2ccc(CC#N)cc2)cc1`: the “% Inhibition @ 10 uM” value is reported as -2.67%. `Cc1cc(C)n(CC(O)Cn2cnc3c2c(=O)n(C)c(=O)n3C)n1` (stereo not drawn): the “% Inhibition @ 10 uM” value is given as 1.62%.

Regarding `O=C(O)CCCNS(=O)(=O)c1cccc2nsnc12`, the “% Inhibition @ 10 uM” value is on record as 1.2%. As for `O=[N+]([O-])c1n[nH]c(-c2ccccc2)n1`, the “% Inhibition @ 10 uM” value is recorded as -2.32%.

As for `O=C(Nc1cccc(O)c1)c1ccccc1`, the “% Inhibition @ 10 uM” value was determined as 4.83%. Take `O=C(Cn1cccc1C(=O)c1ccccc1)NCCCN1CCc2ccccc2C1`: the “% Inhibition @ 10 uM” value is on record as -2.25%. Next, `O=C(Nc1ccc2c(c1)Cc1ccccc1-2)c1cccs1`: 0.13%; `Cn1ncc(N)c1C(=O)Nc1cccc(C(F)(F)F)c1`: -2.63%. Next, `C=CCc1cccc2cc(C(=O)Nc3ccc(C)cc3)c(=O)oc12`: 3.33%; `CCOc1ccc(NC(=O)CN(c2cccc(F)c2)S(C)(=O)=O)cc1`: 1.1%; `O=C(c1cccc2ccccc12)N(Cc1ccc(Cl)cc1)C1CCS(=O)(=O)C1` (stereo not drawn): 8.95%. As for `Cc1ccccc1S(=O)(=O)Cc1ccc(C(=O)NC2CCCCC2C)o1` (stereo not drawn), the figure is -4.96%; as for `COC(=O)c1ccc2c(c1)C(=O)/C(=C/c1cccc(OC)c1)O2`, -1.37%.

Consider `Clc1ccccc1-c1nnc(-c2ccc3c(c2)OCO3)o1`, for which the “% Inhibition @ 10 uM” value was -3.8%. As for `COC(=O)c1c(N2C(C)=CC(C(F)(F)F)(C(F)(F)F)C(C#N)=C2N)sc2c1CCCC2`, the figure is 7.1%; as for `Cc1cc(/C=C2/NC(=O)N(c3ccc(Cl)cc3)C2=O)c(C)n1C(C)C`, -9.2%.

As for `COc1ccc(C/N=C2\C=C(O)OC23CCCCC3)cc1`, the “% Inhibition @ 10 uM” value was found to be 4.95%. Next, `CC(C)N(Cc1ccccc1)C(=O)COc1ccccc1`: -4.31%; `COc1ccc(Br)cc1CNC(=O)C1CCN(S(=O)(=O)N2CCC(C)CC2)CC1`: -6.88%.

As for `O=C(Nc1ccccc1)N(Cc1ccccc1)Cc1ccccc1`, the “% Inhibition @ 10 uM” value is -2%. Next, `CSc1nnc2c(n1)[nH]c1c(C)cccc12`: 0.884%. For `Cc1nnc(NC(=O)CN2C(=O)S/C(=C\c3ccc(Cl)cc3)C2=O)s1`, the “% Inhibition @ 10 uM” value is listed as 6.42%.

For `c1cc(CSc2nc3c(ccc4nsnc43)[nH]2)c2nsnc2c1`, the “% Inhibition @ 10 uM” value is recorded as 3.88%.

Take `O=C(Nc1cccc(O)c1)/C(=C\c1cccs1)NC(=O)c1ccccc1`: the “% Inhibition @ 10 uM” value came out at 4%.

As to `CCO/C(O)=C1/C(C)=NC2=C(C(=O)CCC2)C1c1cccnc1` (stereo not drawn), the “% Inhibition @ 10 uM” value was -3.5%. Next, `Nc1nnc(SCC(=O)c2ccc(-c3ccccc3)cc2)s1`: 3.61%.
